Test results from PubChem BioAssay AID2546 (National Center for Advancing Translational Sciences (NCATS), 2010).
Where “and” joins values, the source holds several entries; their conditions need not be identical. Equal entries are not always repeated. Hit rate of the full screen: of about 310,000 compounds, about 11,000 (3.5%) were called active. The shares of active, inactive and inconclusive entries below differ from those in the screen. Calls follow the shape of the dose curve; as a rule, active = well fitted inhibition curve with a large enough effect; inconclusive = small, poorly fitted or top-dose-only effect, or effect the other way; inactive = flat fitted curve, though single readings scatter. Potencies of inconclusive entries are doubtful fits and often do not repeat.

Assay: VP16 counterscreen qHTS for inhibitors of ROR gamma transcriptional activity;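 also: Gal4-VP16 expression switched on by copper sulfate through the metallothionein promoter; nearly all actives have a fitted effect of over 50% in size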
Conditions: Drosophila S2 Gal4-VP16 UAS-luciferase, luminescence, 20 h; activity, negative = inhibition: at 53.6 µM (top of the series)
% is scaled to controls: 0 for no effect and ±100 for the full control effect; potency is read from the fitted curve at half-maximal effect; tags tell the direction and shape of the fitted curve.

Compound	activity, negative = inhibition	Potency
Cc1cccc(N(CC(=O)Nc2ccc(F)cc2)S(C)(=O)=O)c1	inactive: 10.3%	–
O=C(CSCc1ccc(F)cc1)N1CCOCC1	–	inconclusive: 4.47 µM [inhibitor, single point]
O=C(NCCOc1ccccc1)c1ccccc1Cl	–	inconclusive: 0.0071 µM [inhibitor, full curve, poor fit]
COC(CN(C)C(=O)C1CCCN(S(=O)(=O)c2ccc3c(c2)oc(=O)n3C)C1)OC (configuration not stated)	inactive: -6.41%	–
Cc1ccccc1C(=O)N/N=C/c1ccc([N+](=O)[O-])s1	–	active: 2 µM
O=C(COC(=O)/C=C/c1ccco1)Nc1ncc(Cl)cc1Cl	–	inconclusive: 31.6 µM [activator, single point]
Cc1noc(/C=C/c2cccnc2)c1[N+](=O)[O-]	–	active: 15.8 µM
CCOc1cccc(N2CCN(CCNC(=O)Nc3ccc(C)cc3)CC2)c1C	inactive: 8.82%	–
Cc1ccn2cc(CSc3ccccc3)nc2c1	–	active: 8.91 µM
Nc1cc(N)nc(SCC(=O)N2CCN(C(=O)c3ccco3)CC2)n1	inactive: 8.49%	–
COc1cccc(NC(=O)c2oc3ccccc3c2NC(=O)C(C)(C)C)c1	–	inconclusive: 22.4 µM [inhibitor, single point]
COc1ccc(CNC(=O)C2CC(c3ccccc3[N+](=O)[O-])=NO2)cc1 (configuration not stated)	–	inconclusive: 25.1 µM [inhibitor, single point]
CC(=O)Oc1ccc(Oc2ccc(-c3noc(C)n3)cc2)cc1	inactive: -5.17%	–
O=C(c1ccc(N2CCCCC2)c([N+](=O)[O-])c1)N(Cc1ccccc1)c1ccccn1	inactive: -18.8%	–
CC(=O)Nc1sc(C)c(C)c1C(=O)OCC(=O)N(C)C1CCS(=O)(=O)C1 (configuration not stated)	–	inconclusive: 1.26 µM [inhibitor, single point]
Cc1cc(C(=O)Nc2nc(C)c(C(=O)N(C)C)s2)ccc1[N+](=O)[O-]	–	inconclusive: 12.6 µM [inhibitor, single point]
Cc1nc(SCC(=O)O)c2oc3ccccc3c2n1	–	inconclusive: 35.5 µM [inhibitor, single point]
CSc1nnc(-c2cccc(NC(=S)NN)c2)o1	–	inconclusive: 35.5 µM [inhibitor, single point]
CCOC(=O)C1=C(C)C2C3C(=O)N(c4cc(C)ccc4C)C(=O)C3C1(C)C1C(=O)N(c3cc(C)ccc3C)C(=O)C21 (configuration not stated)	–	inconclusive: 5.62 µM [activator, single point]
COc1ccc(CCN=C(N)NS(=O)(=O)c2ccc(F)cc2)cc1	inactive: -0.27%	–
CN(CCC#N)c1ccc(/C=C(\C#N)c2ccccn2)cc1	–	active: 10 µM
O=C(CSc1cccc[n+]1[O-])C12CC3CC(CC(C3)C1)C2	–	inconclusive: 35.5 µM [inhibitor, single point]
O=C(Nc1ccc(Cl)c(Cl)c1)Nc1ccc(Br)cc1F	–	active: 12.6 µM
CCCn1c(=O)c(/C(N)=N/O)nn(-c2cccc(C(F)(F)F)c2)c1=O	inactive: 0.142%	–

Compound	activity, negative = inhibition	Potency
Oc1c(Cl)cc(Cl)cc1CNc1nc2ccccc2[nH]1	–	inconclusive: 15.8 µM [inhibitor, single point]
COc1ccccc1N1C(=O)C2ON(c3ccccc3)C(c3ccc(N(C)C)cc3)C2C1=O (configuration not stated)	–	inconclusive: 35.5 µM [inhibitor, single point]
Fc1ccc2c(c1)/C(=N/Nc1ccccn1)CCS2	–	inconclusive: 35.5 µM [inhibitor, single point]
COc1ccc(S(=O)(=O)N2c3ccc(Cl)cc3[C@](O)(c3ccccc3Cl)[C@@H]2C(=O)N2CCC[C@H]2C(N)=O)cc1OC	–	inconclusive: 35.5 µM [activator, single point]
COc1c(Cl)cc(Cl)cc1/C=N/n1cnnc1	–	inconclusive: 20 µM [inhibitor, partial curve]
CCC(NC(=O)CCl)c1ccc(C)cc1 (configuration not stated)	inactive: 1.77%	–
O=[N+]([O-])c1ccc(COc2ccc(-c3[nH]ncc3-c3ccccc3)c(O)c2)cc1	–	active: 5.62 µM
Cc1cccc(-n2ncc3c2CCCC3NC(=O)CCc2cccnc2)c1C (configuration not stated)	–	inconclusive: 35.5 µM [inhibitor, single point]
O=C1C=C(N(CCO)Cc2ccccc2)c2ccccc2C1=O	–	inconclusive: 35.5 µM [inhibitor, single point]
CCCCC(=O)Nc1ncc([N+](=O)[O-])s1	–	inconclusive: 2.82 µM [activator, single point]
CCOc1c(Cl)cc(CNCc2ccncc2)cc1OC	inactive: -6.77%	–
NC(=O)N/N=C/c1ccc([N+](=O)[O-])o1	–	inconclusive: 6.31 µM [activator, single point] and inconclusive: 35.5 µM [inhibitor, single point]
CC(C)NC(=O)CN(c1cccc(Br)c1)S(C)(=O)=O	inactive: -1.69%	–
COc1cccc(CN(C)C(=O)c2cc(S(=O)(=O)N3CCN(c4ccccc4)CC3)ccc2Cl)c1	–	inconclusive: 35.5 µM [inhibitor, single point]
COc1cccc(-c2csc(NNC(=O)c3cccs3)n2)c1	–	active: 10 µM
CC(C)c1ccccc1OCC(=O)NC1CCCc2ccccc21 (configuration not stated)	–	inconclusive: 35.5 µM [inhibitor, single point]
COCCN(C(=O)CSc1nc2nc(C)cc(C)n2n1)c1c(N)n(Cc2ccccc2)c(=O)[nH]c1=O	inactive: -9.21%	–
O=C1c2ccccc2C(=O)C12OC(c1ccccc1)C1(C(=O)c3ccccc3C1=O)C2c1cccc([N+](=O)[O-])c1 (configuration not stated)	–	inconclusive: 8.91 µM [activator, partial curve]
CC(C)/C=C1\CC/C(=C\c2ccc(N(C)C)cc2)C1=O	–	inconclusive: 2 µM [activator, partial curve]
O=C(NCc1ccc(F)cc1)C1CCN(S(=O)(=O)c2ccc(Cl)cc2)CC1	inactive: 0.957%	–
CCc1nc(-c2ccccc2)c2ccccn12	inactive: 11.1%	–
Cc1cc(C)n2cc(COc3ccc4ccccc4c3)nc2n1	inactive: -16%	–
C=C1c2cccc(O)c2C(O)=C2C(=O)[C@]3(O)C(O)=C(C(N)=O)C(=O)C(N(C)C)C3C(O)C12 (some centres not stated)	–	inconclusive: 6.31 µM [inhibitor, single point]
